{"source": "a collection of fitness landscapes (doi:10.1016/j.celrep.2020.107928)", "parents": {"B1": {"name": "Caulobacter ParB omega fusion; a variant is named by its letters at X, in order, B8GW30 (parent)", "chain": "MESVVVGEPGMSEGRRGLGRGLSALLGEVDAAPAQAPGEQLGGSREAPIEILQRNPDQPRRTFREEDLEDLSNSIREKGVLQPILVRPSPDTAGEYQIVAGERAWRAAQRAGLKTVPIMVRELDDLAVLEIGIIENVQRADLNVLEEALSYKVLMEKFERTQENIAQTIGKSXSHVANXMRLLXLPDEVQSYLVSGELTAXHARAIAAAADPVALAKQIIEGGLSVRETEALARKAPNLSAGKSKGGRPPRVKDTDTQALESDLSSVLGLDVSIDHRGSTGTLTITYATLEQLDDLCNRLTRGI"}}, "note": "The full ranking holds about 81,000 sequences; the median of “one-hybrid fitness for binding NBS DNA” is about -0.1, and the highest 2% start at about 0.36. Some of the results follow.", "data": [{"variants_of": "B1", "assay": "one-hybrid fitness for binding NBS DNA (the Noc-binding site; scaled: cognate 1, non-cognate 0); higher = stronger binding", "details": "with NBS DNA site", "how_it_was_run": "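Selection: bacterial one-hybrid in E. coli USO, HIS3 reporter with the site 19 bp from the promoter, 48 hours at 37°C on M9-minus-histidine plus 0.1 mM IPTG and 5 mM 3-AT. Libraries were Caulobacter ParB with four randomised specificity codons, sequenced on Illumina before and after selection. Fitness is the rescaled log change in variant-to-wild-type read ratio, anchored to the cognate and non-cognate sites.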", "values": [{"variant": "THIP", "one-hybrid fitness for binding NBS DNA": "≤ 0.2"}, {"variant": "SKPE", "one-hybrid fitness for binding NBS DNA": "≤ 0.2"}, {"variant": "SECF", "one-hybrid fitness for binding NBS DNA": "≤ 0.2"}, {"variant": "VRFL", "one-hybrid fitness for binding NBS DNA": "≤ 0.2"}, {"variant": "HELT", "one-hybrid fitness for binding NBS DNA": "≤ 0.2"}, {"variant": "TFKL", "one-hybrid fitness for binding NBS DNA": "≤ 0.2"}, {"variant": "YMSR", "one-hybrid fitness for binding NBS DNA": "≤ 0.2"}, {"variant": "RQQG", "one-hybrid fitness for binding NBS DNA": "≤ 0.2"}, {"variant": "PSLG", "one-hybrid fitness for binding NBS DNA": "≤ 0.2"}, {"variant": "SRIW", "one-hybrid fitness for binding NBS DNA": "≤ 0.2"}, {"variant": "TSCT", "one-hybrid fitness for binding NBS DNA": "≤ 0.2"}, {"variant": "EHYS", "one-hybrid fitness for binding NBS DNA": "≤ 0.2"}, {"variant": "RLTD", "one-hybrid fitness for binding NBS DNA": "≤ 0.2"}, {"variant": "SGFM", "one-hybrid fitness for binding NBS DNA": "≤ 0.2"}, {"variant": "SNQY", "one-hybrid fitness for binding NBS DNA": "≤ 0.2"}, {"variant": "AFRA", "one-hybrid fitness for binding NBS DNA": "≤ 0.2"}, {"variant": "YSYC", "one-hybrid fitness for binding NBS DNA": "≤ 0.2"}, {"variant": "QMEC", "one-hybrid fitness for binding NBS DNA": "≤ 0.2"}, {"variant": "FTLM", "one-hybrid fitness for binding NBS DNA": "≤ 0.2"}, {"variant": "RREN", "one-hybrid fitness for binding NBS DNA": "≤ 0.2"}, {"variant": "AHNM", "one-hybrid fitness for binding NBS DNA": "≤ 0.2"}, {"variant": "QTSE", "one-hybrid fitness for binding NBS DNA": "≤ 0.2"}, {"variant": "SMLF", "one-hybrid fitness for binding NBS DNA": "≤ 0.2"}, {"variant": "TMVC", "one-hybrid fitness for binding NBS DNA": "≤ 0.2"}, {"variant": "RAFD", "one-hybrid fitness for binding NBS DNA": "≤ 0.2"}, {"variant": "CALR", "one-hybrid fitness for binding NBS DNA": "≤ 0.2"}, {"variant": "QGRK", "one-hybrid fitness for binding NBS DNA": "≤ 0.2"}, {"variant": "PNSN", "one-hybrid fitness for binding NBS DNA": "≤ 0.2"}, {"variant": "VLIV", "one-hybrid fitness for binding NBS DNA": "≤ 0.2"}, {"variant": "SVFG", "one-hybrid fitness for binding NBS DNA": "≤ 0.2"}, {"variant": "QCID", "one-hybrid fitness for binding NBS DNA": "≤ 0.2"}, {"variant": "VLER", "one-hybrid fitness for binding NBS DNA": "≤ 0.2"}, {"variant": "KQQR", "one-hybrid fitness for binding NBS DNA": "≤ 0.2"}, {"variant": "ANRR", "one-hybrid fitness for binding NBS DNA": "≤ 0.2"}, {"variant": "TSVY", "one-hybrid fitness for binding NBS DNA": "≤ 0.2"}, {"variant": "LYMF", "one-hybrid fitness for binding NBS DNA": "≤ 0.2"}, {"variant": "DVST", "one-hybrid fitness for binding NBS DNA": "≤ 0.2"}, {"variant": "PPER", "one-hybrid fitness for binding NBS DNA": "≤ 0.2"}, {"variant": "LVMS", "one-hybrid fitness for binding NBS DNA": "≤ 0.2"}, {"variant": "PAWA", "one-hybrid fitness for binding NBS DNA": "≤ 0.2"}, {"variant": "KLAF", "one-hybrid fitness for binding NBS DNA": "≤ 0.2"}, {"variant": "MSFP", "one-hybrid fitness for binding NBS DNA": "≤ 0.2"}, {"variant": "CVNP", "one-hybrid fitness for binding NBS DNA": "≤ 0.2"}, {"variant": "AVDW", "one-hybrid fitness for binding NBS DNA": "≤ 0.2"}, {"variant": "QDSG", "one-hybrid fitness for binding NBS DNA": "≤ 0.2"}, {"variant": "QDTF", "one-hybrid fitness for binding NBS DNA": "≤ 0.2"}, {"variant": "IYMF", "one-hybrid fitness for binding NBS DNA": "≤ 0.2"}, {"variant": "PRQS", "one-hybrid fitness for binding NBS DNA": "≤ 0.2"}, {"variant": "TPSP", "one-hybrid fitness for binding NBS DNA": "≤ 0.2"}, {"variant": "ANPR", "one-hybrid fitness for binding NBS DNA": "≤ 0.2"}, {"variant": "GTHL", "one-hybrid fitness for binding NBS DNA": "≤ 0.2"}, {"variant": "LCAH", "one-hybrid fitness for binding NBS DNA": "≤ 0.2"}, {"variant": "QPWH", "one-hybrid fitness for binding NBS DNA": "≤ 0.2"}, {"variant": "IKRQ", "one-hybrid fitness for binding NBS DNA": "≤ 0.2"}, {"variant": "FGSA", "one-hybrid fitness for binding NBS DNA": "≤ 0.2"}, {"variant": "TVTQ", "one-hybrid fitness for binding NBS DNA": "≤ 0.2"}, {"variant": "PDLQ", "one-hybrid fitness for binding NBS DNA": "≤ 0.2"}, {"variant": "LSRM", "one-hybrid fitness for binding NBS DNA": "≤ 0.2"}, {"variant": "QWQV", "one-hybrid fitness for binding NBS DNA": "≤ 0.2"}, {"variant": "QPVS", "one-hybrid fitness for binding NBS DNA": 0.202}, {"variant": "MGNT", "one-hybrid fitness for binding NBS DNA": "≤ 0.2"}, {"variant": "NPQM", "one-hybrid fitness for binding NBS DNA": "≤ 0.2"}, {"variant": "TRYP", "one-hybrid fitness for binding NBS DNA": "≤ 0.2"}, {"variant": "TAIE", "one-hybrid fitness for binding NBS DNA": "≤ 0.2"}, {"variant": "ECHG", "one-hybrid fitness for binding NBS DNA": "≤ 0.2"}, {"variant": "KATT", "one-hybrid fitness for binding NBS DNA": "≤ 0.2"}, {"variant": "GISV", "one-hybrid fitness for binding NBS DNA": "≤ 0.2"}, {"variant": "PWGN", "one-hybrid fitness for binding NBS DNA": "≤ 0.2"}, {"variant": "RTTL", "one-hybrid fitness for binding NBS DNA": "≤ 0.2"}, {"variant": "AFES", "one-hybrid fitness for binding NBS DNA": "≤ 0.2"}, {"variant": "YTQP", "one-hybrid fitness for binding NBS DNA": "≤ 0.2"}, {"variant": "TLSS", "one-hybrid fitness for binding NBS DNA": "≤ 0.2"}, {"variant": "LRRI", "one-hybrid fitness for binding NBS DNA": "≤ 0.2"}, {"variant": "VGAT", "one-hybrid fitness for binding NBS DNA": "≤ 0.2"}, {"variant": "QQPE", "one-hybrid fitness for binding NBS DNA": "≤ 0.2"}, {"variant": "LVAE", "one-hybrid fitness for binding NBS DNA": "≤ 0.2"}, {"variant": "DVGP", "one-hybrid fitness for binding NBS DNA": "≤ 0.2"}, {"variant": "PAKS", "one-hybrid fitness for binding NBS DNA": "≤ 0.2"}, {"variant": "HIFL", "one-hybrid fitness for binding NBS DNA": "≤ 0.2"}, {"variant": "DWSM", "one-hybrid fitness for binding NBS DNA": "≤ 0.2"}, {"variant": "TMAW", "one-hybrid fitness for binding NBS DNA": "≤ 0.2"}, {"variant": "DFDR", "one-hybrid fitness for binding NBS DNA": "≤ 0.2"}, {"variant": "VSTW", "one-hybrid fitness for binding NBS DNA": "≤ 0.2"}, {"variant": "TDNV", "one-hybrid fitness for binding NBS DNA": "≤ 0.2"}, {"variant": "QFHD", "one-hybrid fitness for binding NBS DNA": "≤ 0.2"}, {"variant": "SSCE", "one-hybrid fitness for binding NBS DNA": "≤ 0.2"}, {"variant": "LRPP", "one-hybrid fitness for binding NBS DNA": "≤ 0.2"}, {"variant": "LPKY", "one-hybrid fitness for binding NBS DNA": "≤ 0.2"}, {"variant": "QQGK", "one-hybrid fitness for binding NBS DNA": "≤ 0.2"}, {"variant": "PSKI", "one-hybrid fitness for binding NBS DNA": "≤ 0.2"}, {"variant": "GCEA", "one-hybrid fitness for binding NBS DNA": "≤ 0.2"}, {"variant": "DGSQ", "one-hybrid fitness for binding NBS DNA": "≤ 0.2"}, {"variant": "DFHT", "one-hybrid fitness for binding NBS DNA": "≤ 0.2"}, {"variant": "GRPL", "one-hybrid fitness for binding NBS DNA": "≤ 0.2"}, {"variant": "RQPF", "one-hybrid fitness for binding NBS DNA": "≤ 0.2"}, {"variant": "AAHR", "one-hybrid fitness for binding NBS DNA": "≤ 0.2"}, {"variant": "WTYL", "one-hybrid fitness for binding NBS DNA": "≤ 0.2"}, {"variant": "QTKE", "one-hybrid fitness for binding NBS DNA": 0.378}]}]}
